Source: the supplement of paper PMC11417369
This is one part of the list.

system: PfHDP1 homeodomain (GST-tagged); assay: gcPBM binding intensity (ln(normalized median fluorescence intensity)); higher = stronger DNA binding
Summary of the method: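 Binding intensity is defined as the maximum Masliner-normalised natural-log median intensity across replicate spots for either probe orientation. It was measured on an Agilent 4 × 180k array of primer-extended double-stranded 36-bp intergenic genomic probes and negative controls, to which GST-tagged P. falciparum DNA-binding domains made in E. coli were applied for 1 h in 1× PBS with 1% milk, 0.2 mg/ml BSA, 0.5% salmon testes DNA and 0.03% Triton X-100. Detection was by Alexa488 anti-GST antibody and scanning at 488 nm.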

Sequence	gcPBM binding intensity (ln)
TATATTTGTACATGATATTTTTTTTTTCTTTTAAAA [CACACA_negctrl_site754]	6.25
TGTATTTAGAAACATACACACATATTAAGTTTACAT [CACACA_site5689]	6.38
ATATATCTGTATGGCACACACGGATAAATATATATA [CACACA_site4668]	6.67
AGAATAATACAAAAATGTACATTAATAAAAAGATAG [XGTACX_site780]	7.28
GCCAAAATATAATTTACACACTTATTAAATAATTAT [CACACA_site236]	6.47
TTTCCTCATTTTATCATACACACTTATTTATATGTG [CACACA_site900]	6.75
TTATTATTTCTTAGTAGTACTATATAATTTTTTTTT [XGTACX_site1847]	6.4
ATAGTATCTGGTAGCTGTACGAGTCGTAGAGAGTAG [XGTACX_site2546]	6.89
CATAATACAGATAACACACACAATTATACATAAAAT [CACACA_site5742]	6.65
TATATTTAGATATATACACACATTAGCATTTTCATA [CACACA_site6902]	6.63
CTAATGATCATATATACACACACACTAATAAAAAAA [CACACA_site9329]	7.16
AAAGAATTTGCATATACACACAAAAAGATATATACA [CACACA_site6318]	6.99
GTCTTAAAAATTAAAACACACGTTCACTTTCATATT [CACACA_site5803]	6.85
ATAATGTAAAAGTAAACACACACATATATATATACA [CACACA_site8793]	6.74
ATTTCTACTAAAAATACACACGATGATACAACGAAG [CACACA_site1755]	6.85
TATATATATATATAATGTACATATATATAATATACA [XGTACX_site1552]	9.04
AATTAATAACAAAATAAACACACATATATAAATACA [CACACA_site8456]	6.87
GACCAATTCAAATATGCACACAAATTTGAAAACGAT [CACACA_site9202]	9.85
AGATTATAAAATTCTACACACATATATACATATATA [CACACA_site3485]	6.27
ATATAAAAAAAAAAAAGTACACATAAACAAATGCAT [XGTACX_site4241]	6.71
AATAAAAAGACATTCACACATATATATTATTTATAT [CACACA_site5936]	6.5
AATATATAGAAACACACACACAAAAAAAAAAAAAAA [CACACA_site1326]	6.47

Sequence	gcPBM binding intensity (ln)
TTTCACTTTTTCCAAAGTACATATATAAAAATTAAT [XGTACX_site6947]	6.44
TTTTAATAAATATACACACACAAAAAAAAAAAAAAA [CACACA_site3971]	6.28
ATATGTAGAAGTAATGCACACATATGTATATATATA [CACACA_site8796]	10.3
TTAAAATATAATATTCGTACTTATTCAAAAGAAAAA [XGTACX_site2122]	6.02
GTATGTATATATATATGTACATACTGTTTATCGTTA [XGTACX_site6168]	6.4
AAAAAAACATAACAAAATGAAACAAAACAAAAAGAA [GTGCAC_negctrl_site577]	7.19
AGTTATTAAAAATGTGCATGCAATGGTTTCTCTTAA [TGCATGCA_site634]	8.11
AAAAAAAAAAAAAAAGCACACATCATATTATAATTC [CACACA_site3355]	6.66
AGGAGGTCAGTTCACAGTACCCAGAAACTCTACGAG [XGTACX_site2006]	5.8
TCTTTTTTTTCTTTTTTTTTATTTAAATATCAAGTA [CACACA_negctrl_site1354]	6.14
ATTTATAATGATTTTTTTAGTAATCTTGTTATTTTT [XGTACX_negctrl_site373]	5.99
TTATATGGCTCCATTTGTACGCATCCATGTTTTTAT [XGTACX_site6590]	6.91
CATACATATACATACAGTACATATTTTTTGTCAATT [XGTACX_site7357]	6.51
GTATATATTTTTATTTAATAATTTGTTTATTTATTC [CACACA_negctrl_site647]	6.57
AACGAAAACACTACGTGTACCAAACGTCCTACTAAC [XGTACX_site4915]	6.22
TATACATACAGACCCACACACAAAAAAAAAAAAAAA [CACACA_site6536]	6.44
ATATTATTTTAAAGTACACACATATATTAATATATA [CACACA_site2315]	6.75
ATATATATATATATATGTACATATATATATGTATAT [XGTACX_site3959]	9.22
ATGTATTAAAAAAATTGTACTATAAAATGTAACCGC [XGTACX_site8083]	6.51
ATAATATATATATATGCATGTACATATTTATCTTTA [TGCATGCA_site32]	6.74
AAGGCAAGCACTTAAACATGCATATAATAATATCAT [TGCATGCA_site698]	6.35
AAAAAAAAAAAAAACATACACACAAATATATACATA [CACACA_site4010]	6.54
